Laboratory results: the supplement of paper PMC11417369
± gives the standard deviation of the averaged measurements. The list shows a part of the results.

System: PfAP2-G AP2 domain (GST-tagged)
Test: gcPBM binding intensity (ln(normalized median fluorescence intensity)); higher = stronger DNA binding
In short: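 The highest Masliner-normalised natural-log median intensity across replicate spots of either probe orientation is reported as binding intensity. GST-tagged P. falciparum DNA-binding domains expressed in E. coli were applied for 1 h to an Agilent 4 × 180k array of primer-extended double-stranded 36-bp intergenic genomic probes plus negative controls, and bound protein was detected with Alexa488 anti-GST antibody and scanned at 488 nm.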

Sequence | gcPBM binding intensity (ln)
AAGGCATGACTATCTGCACACATAAAAATAAGAAAT [CACACA_site8180] | 10 ± 0.13
TATATTATAGGTTGTGTACACATATTATATAGTACT [CACACA_site4583] | 11.6 ± 0.88
ATATATTTATAGACTTGTACATATATATACGATATA [XGTACX_site8890] | 10.9 ± 0.61
ATTTTTTTGGTAATTTGTACATAATATATACATAAT [XGTACX_site3742] | 11 ± 0.54
AAAATTAAAACCTACACACACATTTAAAAAAAAAAA [CACACA_site3068] | 10.1 ± 0.25
TATATTTATTTAAAAACATGCATTTTTTTTTTCCGT [TGCATGCA_site44] | 9.8 ± 0.042
TTTTTTTTTTTTACATGTACTTATTTTAAATATAAA [XGTACX_site805] | 11.4 ± 0.91
ATTCTTAAAATAAAATGTACGAAAAAAAAAAAAAAA [XGTACX_site1657] | 10.7 ± 0.81
AAAATATGTTAATATTGTACTTAAATAAAAAAAATA [XGTACX_site7152] | 11.2 ± 0.62
TTTTTTATTTTTTACATATTTAGCTCATATTTATAT [GTGCAC_negctrl_site491] | 9.84 ± 0.028
TTTTATGATATTTACACACAAACGTGAGATAGCTCA [CACACA_site2311] | 10.06 ± 0.092
AATATAATATCTATAATATAAAAAAAACAAAAAAAA [CACACA_negctrl_site875] | 9.635 ± 0.092
ATACACATAACATATATATATATATATATATATATC [CACACA_negctrl_site278] | 9.73 ± 0.057
TATATATATATAAACGCATGTAATTTATACACACAT [TGCATGCA_site946] | 10.1 ± 0.13
ATCTTTCCTTTTGCATGTACATATGGAAATACTTTT [XGTACX_site6995] | 11.2 ± 0.73
ATAATTAAGTTATGTGTGCACTGTTAAAAATAAATG | 10.8 ± 0.42
TTCTTCAACAAAAAAATAAAAATAAAATAATAAAAA [GTGCAC_negctrl_site619] | 9.63 ± 0.11
ATATTTTTATATAATGAACACACATATTATATCATT [CACACA_site8446] | 10 ± 0.23
TAAAAGGATACATATACACACATATATATATATATA [CACACA_site2791] | 10.3 ± 0.4
TTTAAAAAATTATATTCACACACATACACATATATA [CACACA_site8076] | 10.1 ± 0.21
ATCCGTGTCTGAAATACACACATGACAATGTGAATG [CACACA_site6556] | 10.1 ± 0.099
TATATATAAATAAACACACACAAATATAATAAAAAA [CACACA_site3526] | 9.87 ± 0.17

Sequence | gcPBM binding intensity (ln)
ATAATGTGTTTGGTATTCTTGATAGATAGTTTTGTG [CACACA_negctrl_site68] | 10.18 ± 0.071
TTTATAATAAAAAATACATGCAGTTATATATAATAA [TGCATGCA_site654] | 9.96 ± 0.014
ATATTGAAAATTTGAAGTACATCTAAATATATTATT [XGTACX_site7817] | 11.4 ± 1
TATTTTACATAAAAGAAAAAAAAAAAAAAAAAAAAA [CACACA_negctrl_site1460] | 9.48 ± 0.28
TTTTAAAAGGTAAAATGTACATATATAATATATACA [XGTACX_site1222] | 11 ± 0.56
ATTCTATTATCCTTTGCACACAAAATAAATGAAAAA [CACACA_site3030] | 10.3 ± 0.52
TATAAAAAAATAATAAAATAATAAAATATATAAATA [TGCATGCA_negctrl_site394] | 9.34 ± 0.16
TTTTTTCAATATTATATCCAAAAATATTTGTAAATA [TGCATGCA_negctrl_site596] | 9.88 ± 0.3
ATTTTTATTTTTTTTGTGCACATTTTCATTTTCTAT [GTGCAC_site9580] | 10.54 ± 0.085
CCTTCCTTGAATTTTACATGCAAAAAATTATAAAAC [TGCATGCA_site663] | 9.96 ± 0.17
TATATATTATATATTTGTACATATATATAAAAACTT [XGTACX_site449] | 10.7 ± 0.4
TTTTTTTTTTTTTTTTGTACTTATAAAATAACATGT [XGTACX_site134] | 11.3 ± 1.2
TAATACTTAGAGAAAAGTACGTATGAACTTATGTAA [XGTACX_site5504] | 11.1 ± 0.54
TATTAATACGGACACACACACACACTAGATAAAATA [CACACA_site4295] | 11.4 ± 0.9
AAAAAAAAAAAAAAAAGTACATATATATATATAATT [XGTACX_site4437] | 11.5 ± 0.86
AGTCCTTACACATATATTAAATATGTGTATATATAT [XGTACX_negctrl_site336] | 10.1 ± 0.13
TTTTGTTTAGTGTATTGTACAATATATCTTTATTTT [XGTACX_site5163] | 10.9 ± 0.51
TATTTAAATACTGACGCATGCATAAGGAGTAATAGT [TGCATGCA_site465] | 10.4 ± 0.18
AAACATTTATGAAGGTGTACAAAAATGAATTAAAAA [XGTACX_site7035] | 11.3 ± 0.8
TTTTAGCTATTTTAATATAATGAAGCAAAAAATAAA [TGCATGCA_negctrl_site576] | 9.735 ± 0.078
ATAATAAATTCTACGCGTACAAAACCATGAACATTA [XGTACX_site7505] | 11.7 ± 1.1
TTTATTAATAAAAAGGTGCAATCAGGAAAAATTATC [GTGCAC_site9626] | 10.4 ± 0.31

Sequence | gcPBM binding intensity (ln)
ATCCTTTATAAATAAGTGCATATAAAAAATAATATT [GTGCAC_site9759] | 10.1 ± 0.3
ACACATATGTATATATGTACTTATATATATATATAT [XGTACX_site8632] | 11.3 ± 0.8
AATTATATATAAAAAGTGCAAAACGATAATTCATCA | 10.12 ± 0.035
TCATATTCCAAAAAAAAAAAAAAAAAAAAAAAAATA [CACACA_negctrl_site1293] | 9.66 ± 0.3
AATATATATATATTATGTACACATAGAAATATATTA [XGTACX_site3874] | 11.3 ± 0.76
ATGTATTACTTAAATATATGAAACATATTACTTTTA [CACACA_negctrl_site496] | 9.63 ± 0.16
AAAAAAAAAATTTTCGTGCACATAAGAAAATTTAAA [GTGCAC_site9788] | 10.3 ± 0.33
ATAGTATATCAAAATTTGTAAATCATTCTCAATAAA [CACACA_negctrl_site430] | 9.74 ± 0.099
ACATTGTTGGTGTTAGTGCATTGGTAAATATTATAT | 10.3 ± 0.18
AAAAAAAAAAAAAAAACACACATATCTGTATTTATA [CACACA_site5760] | 10.3 ± 0.16
CATACATACAAACACACACACATATAAATACATACA [CACACA_site4625] | 9.89 ± 0.014
CACACGTAAAAGTATAATATAAAAAAGGTATACACT [CACACA_negctrl_site127] | 10.21 ± 0.049
TATTTAAAGATATATACACACATTTGATATTATTAT [CACACA_site6509] | 9.875 ± 0.035
ATAATATATGAAAAAACGATTTTTTCATTTTAAATA [XGTACX_negctrl_site146] | 9.91 ± 0.16
TTTATAAACAAATGAACACACAAACATATTTATATA [CACACA_site7478] | 9.98 ± 0.085
ACCTACATACATATGTGTACTTATTTGTATTCACTG [XGTACX_site7124] | 11.5 ± 0.66
TTTACATATTTATATACACACTTTTGCGTGTCTGGT [CACACA_site4750] | 10.03 ± 0.021
TCCATATATATTATGTGTACATATTATATATATAAA [XGTACX_site7525] | 11.5 ± 0.9
TTTAAATATTTTAACACACTCATATTTAGGTTACAA [CACACA_site5685] | 10.02 ± 0.078
TAATCCATAAGAAGCACACACATATAAATATATTTT [CACACA_site6774] | 9.88 ± 0.028
AAACTTGACGGACACACACACACATATATAAAAAAA [CACACA_site4577] | 11.3 ± 0.84
ATATATAAATAAATAGTGCATTTTAATATTTAACGT | 9.925 ± 0.049

Sequence | gcPBM binding intensity (ln)
ATATATAAAATATATTGTACATTAACATATATATTT [XGTACX_site2055] | 10.7 ± 0.43
GTAATATTATATAGTTGTACTTTTTTTTTATTATAT [XGTACX_site483] | 11.5 ± 1
CAATATAAAAAACACACGCACACAAAAAAAAAAAAA [CACACA_site3521] | 10.2 ± 0.49
AGTAAAAGAAAGCACACACACATGTATATATGTATG [CACACA_site3858] | 9.96 ± 0.11
AATATCATCAAACGCACACATACATAAATATATTAT [CACACA_site2174] | 10.04 ± 0.092
GTTCTTTCAAGTTATACACACCAAAAAAAAAAAAAA [CACACA_site7435] | 10.1 ± 0.35
TTTCTTTATTTTTTTTTTTTTTTTTTTCCTTTTTTT [TGCATGCA_negctrl_site231] | 9.71 ± 0.51
TGTTATATTTGTGCGTGTACACATTTGAAAAAATAT [XGTACX_site3796] | 11.8 ± 1.1
AACGGGGCCAAGAAATATAAATAATCAAAACAAAAA [XGTACX_negctrl_site320] | 10.5 ± 0.7
TGTGCACGCATATACACACACAAATACAATGATAAA [CACACA_site6656] | 10.4 ± 0.43
ATAATACAAAATACATGTACAAATATTTTTCATATT [XGTACX_site1721] | 10.9 ± 0.52
AGTGTGTGTGCGTATAGTACATATACATATATACAC [XGTACX_site6882] | 11.2 ± 0.67
AAATGAATAAAATTTATTTATAAAAGAAAAATCACA [GTGCAC_negctrl_site225] | 9.61 ± 0.23
AATTCTTTCATATATTGTACGTATTCCCATAAAATA [XGTACX_site5923] | 11.6 ± 0.89
TAGTACACACAAAATACATGCGGGGTTTAATATTTA [TGCATGCA_site576] | 10.7 ± 0.33
TTGTCATTTATAAAATGTACGTGTGTATATATTTAA [XGTACX_site5000] | 11.2 ± 0.67
TTGCCATTAATTTATACACACACATTTTAATTTTTT [CACACA_site8150] | 10.07 ± 0.099
CAAATATATATGTTCACACATATAATTATTGTGAAA [CACACA_site4190] | 9.835 ± 0.021
TCAATAGTTACTAGTACATGCAAAAATAAACCTATA [TGCATGCA_site85] | 11.2 ± 0.88
AAGAAAATAAAATAAAAAAAAAAATAAAAAAAATAA [TGCATGCA_negctrl_site516] | 9.17 ± 0.099
GTATGTTTAATTTTAGTGCAATTATAAATATTTTAA [GTGCAC_site9531] | 10.1 ± 0.21
TTTTAAAGCATATCATATAAAGAACATGACATAGGA [CACACA_negctrl_site630] | 9.95 ± 0.28
